Source: PubChem BioAssay AID651820 (National Center for Advancing Translational Sciences (NCATS), 2012)
The whole screen tested about 340,000 compounds, of which about 12,000 (3.5%) were called active. The shares of active, inactive and inconclusive entries below differ from those in the screen. Calls follow the shape of the dose curve; as a rule, active = well fitted inhibition curve with a large enough effect; inconclusive = small, poorly fitted or top-dose-only effect, or another doubt; inactive = no such curve, though single readings can be large or run the other way. Potencies of inconclusive entries are left out as doubtful fits.

experiment: qHTS Assay for Inhibitors of Hepatitis C Virus (HCV); details: Huh7.5.1 HCVcc-Cre (HCVcc is cell-culture hepatitis C virus) infection, luciferase reporter, 44 h; activity change, negative = inhibition: at 41.8 µM (top of the series) unless noted
Outline: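 Infectious HCVcc-Cre (~0.5 moi) was added to cells just after compound, with cells seeded 4 h earlier at 1,000 per well. Luciferase activity after 44 h culture reported infection; substrate was incubated 15 min at room temperature before reading.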
% is scaled to controls: 0 for no effect and ±100 for the full control effect; potency is read from the fitted curve at half-maximal effect; tags tell the direction and shape of the fitted curve.

| Compound | Potency | activity change, negative = inhibition |
| --- | --- | --- |
| CC(C)c1ccc(NC(=O)c2snc3ccc(Cl)cc23)cc1 | inconclusive [inhibitor, partial curve] | – |
| COc1cccc(C(=O)NNC2=CC(=O)CC(C)(C)C2)c1 | – | inactive: -0.466% |
| C/C(=N/OC(=O)c1ccc(C)cc1)c1cccs1 | – | inactive: 9.42% |
| CN(Cc1ccccc1)S(=O)(=O)c1ccc(NC(=S)NC(=O)C2CCCC2)cc1 | inconclusive [inhibitor, partial curve, poor fit] | – |
| Cc1ccccc1C(=O)Nc1ccc(S(=O)(=O)N2CCCC2)cc1 | inconclusive [inhibitor, partial curve] | – |
| O=[N+]([O-])c1ccc2nc(N3CCCC3)sc2c1 | inconclusive [inhibitor, single point] | – |
| CNC(=O)c1cc(C(=O)c2ccc(C(F)(F)F)cc2)c[nH]1 | – | inactive: -3.4% |
| Cc1cccc(C)c1NC(=O)c1cccn(Cc2ccc3c(c2)OC(F)(F)O3)c1=O | inconclusive [inhibitor, single point] | – |
| O=c1c2ccccc2ncn1-c1ccc([N+](=O)[O-])cc1[N+](=O)[O-] | inconclusive [inhibitor, partial curve] | – |
| Cc1cccc(C)c1NC(=O)CN(C)C(=O)/C=C/c1cccs1 | – | inactive: 3.91% |
| O=C(O)c1ccc(NC(=O)c2cccc(N3C(=O)C4C5CCC(C5)C4C3=O)c2)cc1 (stereo not drawn) | – | inactive: 28.6% |
| O=C1SC(c2ccccc2)=C/C1=C\N1CCCCC1 | active: 11.2 µM | – |
| OCCN(Cc1ccccc1)Cc1ccc(Cl)cc1Cl | inconclusive [inhibitor, single point] | – |
| COc1ccc(CNC(=O)CN2C(=O)COc3ccc(S(=O)(=O)NC4CCCC4)cc32)cc1 | inconclusive [inhibitor, single point] | – |
| CC1(C)Cc2cccc(OCC(=O)N3CCN(c4ccccc4Cl)CC3)c2O1 | inconclusive [inhibitor, single point] | – |
| Cc1cc(C)cc(OCC(=O)O/N=C(\N)c2cccnc2)c1 | – | inactive: -10.6% |
| CCn1c(=O)cc(SCC(=O)NCc2ccco2)c2ccccc21 | inconclusive [inhibitor, single point] | – |
| COc1ccccc1NC(=O)Nc1nc(CC(=O)Nc2ccc(F)cc2)cs1 | inconclusive [inhibitor, full curve, poor fit] | – |
| Cc1ccc(S(=O)(=O)N/N=C\c2ccccc2OCc2ccccc2)cc1 | inconclusive [inhibitor, partial curve, poor fit] | – |
| CC(=O)c1cc2c(cc1NC(=O)CN1CCCCC1C)OCO2 (stereo not drawn) | inconclusive [inhibitor, full curve, poor fit] | – |
| Cc1ccc(-c2nc(SCC(=O)N(C)c3c(N)n(Cc4ccccc4)c(=O)[nH]c3=O)n[nH]2)cc1 | – | inactive: -1.7% |
| O=C(Cn1cc[n+](Cc2ccccc2)c1)c1ccc([N+](=O)[O-])cc1 | inconclusive [inhibitor, single point] | – |
| Cc1nc(-c2cccc(NC(=O)c3ccc(-n4cccn4)cc3)c2)cs1 | active: 11.2 µM | – |

| Compound | Potency | activity change, negative = inhibition |
| --- | --- | --- |
| COc1cc(CNCCc2ccc(S(N)(=O)=O)cc2)ccc1OCc1ccc(Cl)cc1 | active: 4.47 µM | – |
| Cc1noc2ncnc(N3CCCCC3)c12 | – | inactive: -4.5% |
| COc1ccc(-c2c(C#Cc3ccsc3)c3cc(-c4ccc5[nH]ccc5c4)ccc3n2C)cc1 | – | inactive: -2.75% |
| CN(C)c1cc(-c2cccc(C(F)(F)F)c2)oc(=O)c1Cl | – | inactive: -1.12% |
| COc1ccccc1CN1[C@@H](CC(C)=O)c2cc(C(F)(F)F)ccc2S1(=O)=O | – | inactive: -9.53% |
| CN1C(=O)C(C)(C)c2cc(S(=O)(=O)N3CCCC3C(=O)NCc3ccc(F)cc3)ccc21 (stereo not drawn) | – | inactive: 9.53% |
| CCOC(=O)c1c(NC(=O)COC(=O)c2ncc(Cl)c(Cl)c2Cl)sc(C(=O)N(C)C)c1C | inconclusive [inhibitor, single point] | – |
| Oc1ccc(C[C@H]2CNC(=S)N2CC2CCCN2C[C@H](Cc2ccc(O)cc2)N2C[C@H](Cc3ccccc3)N(CCc3ccccc3)C2=S)cc1 (stereo partly drawn) | active: 4.47 µM | – |
| C#CCOCCOCCOCCNc1nc(N2CCN(C(=O)CCCCCCCCCCNC(=O)[C@H](CO)n3cc(CCCSC)nn3)CC2)nc(N2CCN(C(=O)CCCCCCCCCCNC(=O)[C@@H]([C@H](C)O)n3cc(C)nn3)CC2)n1 | inconclusive [inhibitor, partial curve] | – |
| COC(=O)c1c(N)sc(C(=O)NCCc2ccccc2)c1C | inconclusive [inhibitor, partial curve, poor fit] | – |
| Cc1cccc(-n2c(SCC(N)=O)nc3c(c2=O)C2(CCCCC2)Cc2ccccc2-3)c1 | inconclusive [inhibitor, single point] | – |
| Nc1ccc(C(=O)OCc2nc3c(ccc4ccccc43)[nH]2)cc1 | inconclusive [inhibitor, partial curve, poor fit] | – |
| Cc1ccc2[nH]c3c(c2c1)CN(C(=O)CN1CCCc2ccccc21)CC3 | inconclusive [inhibitor, single point] | – |
| CC(=O)c1ccc2c(c1)Nc1ccccc1S2 | inconclusive [inhibitor, partial curve, poor fit] | – |
| Cc1nnc(CN(C)C(=O)c2cc(COc3ccc(F)cc3Cl)on2)o1 | – | inactive: 16.5% |
| COc1ccc(/C(C)=N/OCC(=O)N=Nc2c(O)[nH]c3ccccc23)cc1 | inconclusive [inhibitor, single point] | – |
| CCCc1cnc(N2CCN(S(=O)(=O)c3cccs3)CC2)nc1 | – | inactive: 4.3% |
| CC(C)C(=O)Nc1nc(-c2ccccc2)ns1 | inconclusive [inhibitor, single point] | – |
| O=C(Cn1c(=O)n2ncnc2c2c3c(sc21)CCCC3)c1ccccc1 | inconclusive [inhibitor, partial curve] | – |
| COc1cc(NC(=S)NCC2CCCO2)c(OC)cc1Cl (stereo not drawn) | inconclusive [inhibitor, single point] | – |
| CC1(C)Cc2cccc(OCC(=O)NCCc3ccccc3)c2O1 | inconclusive [inhibitor, full curve, poor fit] | – |
| Cc1cc(SCC(=O)N2CCN(C(=O)c3ccco3)CC2)c(C)cc1Br | inconclusive [inhibitor, single point] | – |
| CC1CCN(CC(O)COC2CC(C)CCC2C(C)C)CC1 (stereo not drawn) | – | inactive: -23.9% |

| Compound | Potency | activity change, negative = inhibition |
| --- | --- | --- |
| COC(=O)c1cc(NS(=O)(=O)c2ccc(C(C)C)cc2)ccc1N1CCOCC1 | inconclusive [inhibitor, single point] | – |
| O=[N+]([O-])c1ccc(-c2nn(-c3ccccc3)cc2/C=N/n2c(-c3cccs3)n[nH]c2=S)cc1 | inconclusive [inhibitor, single point] | – |
| COC(=O)c1ccccc1NC(=O)CNc1cc(Cl)ccc1N1CCOCC1 | inconclusive [inhibitor, single point] | – |
| O=C(c1cc(-c2ccccn2)nc2ccccc12)N1CCN(c2ncccn2)CC1 | – | inactive: 3.47% |
| Cc1ccccc1OCc1nc(-c2ccc(-n3cccc3)cc2)no1 | – | inactive: -9.19% |
| COc1cc2c3nnc(-c4ccc(F)cc4)c-3cn(Cc3ccccc3F)c2cc1OC | inconclusive [inhibitor, single point] | – |
| COC(=O)c1cn(C(=O)c2ccc(Br)o2)c2ccccc12 | inconclusive [inhibitor, single point] | – |
| Cc1[nH]n(-c2ccccc2)c(=O)c1N=Nc1ccccc1O | active: 4.47 µM | – |
| C=CCNC(=O)NC(=O)CN1C(=O)NC(c2ccccc2)(c2ccccc2)C1=O | – | inactive: 0.722% |
| Cc1ccc(C23CC4CC(CC(CC(=O)N5CCOCC5)(C4)C2)C3)cc1 | inconclusive [inhibitor, single point] | – |
| COCCNC(=O)c1cc2sc3ccccc3c2s1 | inconclusive [inhibitor, single point] | – |
| COC(=O)c1sc(N2C(=O)C(O)=C(C(=O)c3ccc(C)o3)C2c2cccs2)nc1C (stereo not drawn) | – | inactive: -12.5% |
| COc1ccc(C(=O)C2CCN(CC(=O)Nc3ccc(OC)cc3OC)CC2)cc1 | inconclusive [inhibitor, partial curve] | – |
| CNCC[C@@H](Oc1ccc(C(F)(F)F)cc1)c1ccccc1 | active: 7.94 µM | – |
| O=C1/C(=C/c2ccccc2F)SC(=S)N1CCC(=O)N1CCCCC1CCO (stereo not drawn) | inconclusive [inhibitor, single point] | – |
| CC(=O)c1c(C)[nH]c(C(=O)OCc2nnc(-c3ccc([N+](=O)[O-])cc3)o2)c1C | inconclusive [inhibitor, partial curve] | – |
| CCCCC(=O)Nc1nc(C)c(C(C)=O)s1 | – | inactive: -26.4% |
| COc1ccc(-c2cc(-c3ccc(C)cc3)nc(SCc3nnc(-c4ccccc4)o3)c2C#N)cc1OC | inconclusive [inhibitor, single point] | – |
| CC1CC(C)CN(S(=O)(=O)c2ccc(C(=O)Nc3sccc3C(N)=O)cc2)C1 (stereo not drawn) | inconclusive [inhibitor, partial curve] | – |
| O=C(Cc1ccccc1F)Nc1nc(-c2ccc(F)c(F)c2)cs1 | inconclusive [inhibitor, single point] | – |
| CCOc1ccc2c(c1)C(c1ccc(C)cc1)=NNC(c1ccc(C)cc1)=N2 | inconclusive [inhibitor, partial curve] | – |
| CCC(C)(C)NC(=O)C(c1ccc(OC)cc1)N(C(=O)CCC(=O)Nc1cc(C)on1)c1cccc(F)c1 (stereo not drawn) | inconclusive [inhibitor, full curve, poor fit] | – |
